# Out of some 46,000 compounds screened, about 60 (0.1%) were called active. About 3% were inconclusive and are not listed. The call rests on the fitted dose curve; in most records, active means well fitted inhibition curve with a large enough effect; inconclusive means small, poorly fitted or top-dose-only effect; inactive means no such curve, though single readings can be large or run the other way. This is one part of the list.
# Test: Primary qHTS assay for Inhibitors of ovarian cancer metastasis using an organotypic tumor microenvironment (TME) model. Further: nearly all actives have a fitted effect of over 65% in size.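 On activity change, negative = inhibition: plate controls were DMSO wells for no effect and tomatine positive control wells for full effect.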
# Conditions: SKOV3ip1-GFP adhesion/invasion on 3D omental model, fluorescence; series mostly up to 45.8 µM; activity change, negative = inhibition: at the top concentration
# Outline: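 qHTS, 4-pt dose (0.36-46 umol/L); SKOV3ip1-GFP, 1,200 cells/well, no FBS; primary omental fibroblast/mesothelial co-culture 48 h pre-grown; 2 h RT + 16 h 37 C; PBS wash, 4% PFA; GFP count 488/509 nm.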
Structure (SMILES),outcome,"activity change, negative = inhibition"
COc1ccc(C(=O)Nc2nc3c(s2)Cc2cc(OC)ccc2-3)cc1,inactive,–
Cc1c(C(=O)N(C)C)sc2c1c(=O)n(-c1ccccc1C(F)(F)F)c(=O)n2Cc1cccc(F)c1,–,inactive: 3.95%
O=C(NCCc1ccccc1)C1COc2ccccc2C1 (stereo not given),–,inactive: -25.4%
Cc1cccc(CN2C(=O)c3ccccc3Sc3ccc(C(=O)NCc4cccs4)cc32)c1,inactive,–
CCOC(=O)N1CCc2c(sc3c2c(=O)n(-c2ccc(F)cc2)c(=O)n3CC(=O)c2ccccc2)C1,inactive,–
CCOC(=O)c1c(NC(=O)c2cc3ccccc3c(=O)o2)sc2c1CCC(C(C)(C)C)C2 (stereo not given),inactive,–
Cc1cc(=O)n(CC(=O)NC(C)c2ccccc2)c2c1c(C)nn2C (stereo not given),–,inactive: -2.34%
CCOC(=O)c1c(C)n(-c2ccccc2)c2ccc(OC(=O)c3cc(OC)cc(OC)c3)cc12,–,inactive: -1.04%
CCc1ccc(NC(=O)c2cc(C)nn2-c2ccccc2)cc1,inactive,–
Cc1ccc(NC(=O)Cn2cc(C(=O)C3CCCCC3)c3ccccc32)c(C)c1,–,inactive: 3.77%
CN1[C@H]2CC(OC(=O)[C@@H](CO)c3ccccc3)C[C@H]1[C@H]1O[C@H]12 (stereo not given in full),–,inactive: -0.985% [at 23.2 µM]
Cc1cccc(C(=O)Nc2nnc(S(=O)(=O)N3CCCc4ccccc43)s2)c1,–,inactive: 3.25%
Cn1c(=O)n(C)c2cc(NS(=O)(=O)c3ccc(C(C)(C)C)cc3)c(NCc3ccccc3)cc21,–,inactive: -34.7%
COc1ccc(NC(=O)c2oc3ccccc3c2NC(=O)COc2ccc(F)cc2)c(OC)c1,inactive,–
CCCNc1nc2c(c(=O)n(C)c(=O)n2C)n1CC(O)COc1ccccc1 (stereo not given),–,inactive: 3.93%
CCC(=O)Nc1cc(-c2nc3ccccc3s2)c(Cl)cc1Cl,–,inactive: -0.353%
CCc1cccc(C)c1NC(=O)C(CC)Sc1nncn2c1cc1occc12 (stereo not given),inactive,–
CCS(=O)(=O)N1CCc2cc(C(=O)Nc3cc(OC)c(Cl)cc3OC)ccc21,–,inactive: 2.73%
CCOc1ccc(C(=O)Nc2ccc3oc(-c4ccncc4)nc3c2)cc1,–,inactive: 15.8%
Cc1ccc(Nc2nc(C)c(NC(=O)c3ccc(C)cc3)c(Nc3ccc(C)cc3)n2)cc1,–,inactive: 1.32%

Structure (SMILES),outcome,"activity change, negative = inhibition"
CCOc1ccc(NC(=O)CCNS(=O)(=O)c2cccc3nsnc23)cc1,inactive,–
CCN1c2ccccc2-c2nc(SCC(=O)Nc3cc(F)ccc3F)ncc2S1(=O)=O,–,inactive: 9.27%
CCOc1ccc(C2C(=O)N(C3CCCCCC3)CC(=O)N2CCc2ccc(Cl)cc2)cc1OC (stereo not given),–,inactive: -0.259%
O=C(Cn1ccc2cc(S(=O)(=O)N3CCCC3)ccc21)NCc1ccccc1Cl,–,inactive: 2.62%
O=C(NCc1ccc(F)cc1)C(=O)NCC(c1ccco1)S(=O)(=O)c1cccs1 (stereo not given),inactive,–
Cc1ccc(-c2nnc(Nc3cccc(Br)c3)c3ccccc23)cc1S(=O)(=O)NCC1CCCO1 (stereo not given),–,inactive: -3.92%
COC(=O)c1ccccc1NC(=O)CSc1nnc2cc(C)c3cc(C)cc(C)c3n12,–,inactive: 16%
Cc1ccc(NC(=O)CCCn2nc(C)c3sc4ccccc4c3c2=O)c(Cl)c1,–,inactive: -5.64%
CCC(C(=O)Nc1cccc(C#N)c1)n1nc(-c2ccccc2)ccc1=O (stereo not given),inactive,–
O=C(c1ccc2c(c1)N(Cc1ccc(Cl)cc1)C(=O)c1ccccc1S2(=O)=O)N1CCc2ccccc21,–,inactive: -6.01%
COc1ccc(OC)c(NC(=O)CSC2=Nc3ccccc3C3=NC(CCC(=O)NCCc4ccccc4)C(=O)N23)c1 (stereo not given),–,inactive: -9.75%
CCc1ccc(N2C(=O)N(CC(=O)C(C)(C)C)c3ccccc3S2(=O)=O)cc1,inactive,–
O=C(NCCC1=CCCCC1)c1ccc2c(c1)N(Cc1ccc(Cl)cc1)C(=O)c1ccccc1S2(=O)=O,inactive,–
COc1ccccc1N1CCN(S(=O)(=O)c2c(C)sc3ncn(CC(=O)NCCN(C)C)c(=O)c23)CC1,–,inactive: -3.11%
Cc1nnc(NCc2ccc(F)cc2)c2c1nnn2Cc1ccccc1Cl,–,inactive: -2.26%
CCOc1ccc(NC(=O)CCn2nc(C)c(S(=O)(=O)N3CCCCC3)c2C)cc1,–,inactive: -2.53%
COc1ccc(NC(=O)CC2C(=O)N(c3ccc(C)cc3)C(=O)N2Cc2ccc(C)cc2)cc1 (stereo not given),–,inactive: -1.88%
COc1ccc(CCNC(=O)Cn2nc(C)c3c(C)n(-c4ccc(C)cc4)nc3c2=O)c(OC)c1,–,inactive: -19.6%
Cc1c(Cl)cccc1NC(=O)Cn1cnc(S(=O)(=O)N2CCCC2)c1,inactive,–
Nc1ccc(S(=O)(=O)NC2(C(F)(F)F)NC(=O)N(c3cccc(Cl)c3)C2=O)cc1 (stereo not given),–,inactive: 15.3%

Structure (SMILES),outcome,"activity change, negative = inhibition"
CCC(C(=O)N1CCN(c2ccc(OC)cc2)CC1)n1nc(C)n2c(cc3occc32)c1=O (stereo not given),inactive,–
O=c1c2ccccc2nc(N2CCN(c3cccc(Cl)c3)CC2)n1-c1ccccc1,–,inactive: 0.0477%
CCN(CC)CCCNC(=O)c1nn(-c2ccc(OC)cc2)c(=O)c2c1c1ccccc1n2C,–,inactive: 8.76%
CC(=O)Nc1ccc(NC(=O)CCc2c(C)nc3c(c(C)nn3-c3ccccc3)c2C)cc1,–,inactive: -6.61%
CCCCOc1ccc(C(=O)Nc2nc3c(s2)CC(C)CC3)cc1 (stereo not given),–,inactive: -4.08%
CCCc1cc(=O)[nH]c(Nc2ccc(C)c(O)c2)n1,–,inactive: 0.648%
COCCNC(=O)c1ccc2c(c1)N(Cc1c(F)cccc1Cl)C(=O)c1ccccc1S2,inactive,–
O=C(Nc1ccccc1C(F)(F)F)N1CCC2(CC1)Oc1ccccc1C(=O)N2Cc1ccccc1F,inactive,–
CCOC(=O)c1noc2ncnc(Nc3cccc(C(F)(F)F)c3)c12,–,inactive: 7.38%
COC(=O)c1cccc(CN2C(=O)SC(Nc3ccc(Cl)cc3)C2=O)c1 (stereo not given),–,inactive: 16.2%
CCCCNC(=O)CC1N=C2c3ccccc3N=C(SCC(=O)NCc3ccccc3Cl)N2C1=O (stereo not given),–,inactive: -3.86%
Cc1ccc(NC(=O)CCC(=O)N2CCSc3ccccc32)cc1,–,inactive: 6.77%
COc1cccc(C(=O)Nc2cccc(OCc3cc(=O)n4cccc(C)c4n3)c2)c1,–,inactive: -0.562%
CC(C)(Oc1ccc(Cl)cc1)C(=O)Nc1nnc2n1CCS2,inactive,–
Cc1cnc2c(c1SCC(=O)NCc1ccccc1Cl)c(=O)n(C)c(=O)n2C,–,inactive: 20.6%
Cc1ccn2c(Nc3ccccc3C)c(-c3cccnc3)nc2c1,–,inactive: -24.3%
Cc1ccc(C)c(N2CCN(C(=O)c3nn(C)c4c3CS(=O)(=O)c3ccccc3-4)CC2)c1,–,inactive: -20%
O=C(COc1ccccc1)Nc1nnc(SCc2cc(=O)c3ccccc3[nH]2)s1,–,inactive: -0.381%
Clc1ccc(-c2noc(-c3cccnc3N3CCN(c4ccccc4)CC3)n2)cc1,–,inactive: -4.87%
COC(=O)c1ccc(NC(=O)CC2C(=O)N(c3ccc(C)cc3)C(=O)N2Cc2ccc(OC)cc2)cc1 (stereo not given),–,inactive: -11.9%
